# Data from PubChem BioAssay AID1508642 (National Center for Advancing Translational Sciences (NCATS), 2021).
# Out of some 43,000 compounds screened, about 200 (0.47%) were called active. Inconclusive results (about 12%) are left out. Calls come from the whole dose curve; as a rule, active = well fitted cell-killing curve with a large enough effect; inconclusive = small, poorly fitted or top-dose-only effect, or effect the other way; inactive = flat fitted curve, though single readings scatter. This is one part of the list.
# Experiment: Cell viability qHTS assay in S16 Pmp22-F2sN cells; note: nearly all actives have a fitted effect of over 65% in size
# Settings: S16 Pmp22-F2sN Schwann cells (luciferase reporters placed in the Pmp22 gene) viability, CellTiter-Glo, 24 h; series mostly up to 57.5 µM; activity change, negative = cytotoxicity: at the top concentration
# Method in brief: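 Seed 500-1,000 S16 Pmp22-F2sN cells per well in phenol-red-free DMEM with 10% heat-inactivated FBS; pin-add 23 nL compound; incubate 24 h at 37C; add CellTiter-Glo, wait 15 min protected from light; read luminescence.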
# % is set by controls: 0 for no effect and ±100 for the full control effect; potency is the fitted concentration of half-maximal effect.
SMILES,"activity change, negative = cytotoxicity",Potency
COc1cn(CC(=O)Nc2cc(C)cc(C)c2)c(CN2CCCCC2)cc1=O,inactive: 2.59%,–
CCC(C)S(=O)(=O)c1oc(-c2cccs2)nc1S(=O)(=O)c1ccccc1 (configuration not stated),–,active: 2.51 µM
COc1cccc(-c2nnc(SCC(=O)N(C)C3CCCCC3)o2)c1,inactive: 20%,–
CN1CCc2nc3sc(C(=O)c4ccc(F)cc4)c(N)c3cc2C1,inactive: 3.03%,–
CCOc1ccccc1CNCc1c(C(=O)O)c(C)n(Cc2ccc(C)cc2)c1C,inactive: -0.973%,–
CCOc1ccc(CCNC(=O)c2cnc3c(-c4ccc(F)cc4)c(C)nn3c2C)cc1,inactive: -10.1%,–
O=C(NCCCN1CCN(c2ccccc2)CC1)c1sc2ncccc2c1-n1cccc1,inactive: -24.4%,–
COc1ccc(C(=O)c2cn(Cc3ccccc3)c3ccccc3c2=O)cc1OC,inactive: -1.34%,–
CN1C(C(=O)Nc2cccc(O)c2)=CC(c2cccs2)=NS1(=O)=O,inactive: -10.5%,–
O=C(NCCc1nc2ccccc2n1Cc1ccccc1F)c1ccc(F)cc1,inactive: -0.702%,–
COc1ccc(N(C(=O)c2ccccc2C)S(=O)(=O)c2ccc(Cl)cc2)cc1,inactive: -1.36%,–
Nc1ncc(S(=O)(=O)NCc2ccccc2)cn1,inactive: 8.34%,–
COc1cc(S(=O)(=O)NCCc2c(C)[nH]c3ccc(C)cc23)ccc1Br,inactive: 0.471%,–
COc1cccc(-n2c(SCc3cccc(C)c3)nc3c([nH]c4ccccc43)c2=O)c1,inactive: 14.3%,–
CCOc1ccc(-n2ccnc2SCC(=O)Nc2cc(C)ccc2C)cc1,inactive: -23.2%,–
O=C(C1CCC1)N1CCCc2cc(S(=O)(=O)N3CCN(c4cccc(Cl)c4)CC3)ccc21,inactive: 1.97%,–
CCOc1ccccc1NC(=O)COC(=O)CC(C)(C)CC1=NS(=O)(=O)c2ccccc2N1,inactive: -3.41%,–
Cc1onc(-c2ccccc2Cl)c1C(=O)Oc1ccc(Cl)cc1Cl,inactive: -14.6%,–
Cc1ccc(C)c(NC(=O)C(=O)NCCCN2CCOCC2)c1,inactive: 4.4%,–
COc1ccc(Nc2ncc(C(=O)Nc3cccc(Cl)c3)c3ccccc23)cc1,inactive: 7.22%,–
Cc1ccc(OCC(=O)NCC2(N3CCN(C)CC3)CCCCC2)cc1,inactive: -1.08%,–

SMILES,"activity change, negative = cytotoxicity",Potency
COc1ccccc1Nc1nc(C)nc(N)c1S(=O)(=O)c1ccccc1,inactive: 16.8%,–
Cc1nc2c3cccnc3nn2c(C)c1CCC(=O)NCc1ccccc1,inactive: 6.84%,–
CCN(CC)S(=O)(=O)c1ccc2c(c1)nc(CN(C)C(=O)Nc1ccc(C)c(Cl)c1)n2C,inactive: -2.01%,–
Cc1ccc(C)c(NC(=O)c2cc(S(=O)(=O)NCc3ccccc3)ccc2F)c1,inactive: -29.2%,–
CC(C)CCNC(=O)c1cnc2sc(N3CCCCCC3)nn2c1=O,inactive: -5.61%,–
COc1ccc(CNC(=O)c2ccc(Cn3c(=O)c4cccn4c4cccnc43)cc2)c(OC)c1,inactive: 0.229%,–
Cc1ccc(O)c(NC(=O)c2cc(-c3ccc(F)cc3)no2)c1,inactive: 11.4%,–
Cc1ccc(Cl)cc1N1CCN(C(=O)c2ccc3c(Cl)c4c(nc3c2)CCCC4)CC1,inactive: 15.5%,–
O=C(Cn1c(=O)ccc2cc(S(=O)(=O)N3CCCC3)ccc21)Nc1ccccc1,inactive: 18.1%,–
COc1cccc(-c2nc(CS(=O)(=O)CC(=O)N3CCN(c4ccccc4)CC3)c(C)o2)c1,inactive: 1.21%,–
CCn1cc(C(=O)NCCC(C)C)c(=O)c2cc(S(=O)(=O)N(C)C3CCCCC3)ccc21,inactive: 1.54%,–
CCC(=O)N1c2ccccc2CC1C(=O)NCCCN1CCN(c2ccc(OC)cc2)CC1 (configuration not stated),inactive: 6.37%,–
CC1CCCCN1c1cc2c(cc1F)c(=O)c(S(=O)(=O)c1ccccc1)cn2Cc1ccccc1 (configuration not stated),inactive: -0.651%,–
O=S(=O)(Nc1ccc(O)c(Sc2nc3ccccc3s2)c1)c1cc(Cl)ccc1Cl,inactive: 7.1%,–
O=C(Cn1c(-c2cccs2)cc2cc(F)ccc21)NCCc1ccc(Cl)cc1,inactive: -12.4%,–
CCCCOc1ccc(CNC(=O)c2cnc3sc(N4CCCC4)nn3c2=O)cc1,inactive: 7.96%,–
COc1ccc(-c2nc(CNC(=O)Nc3ccccc3)c(C)o2)c(OC)c1,inactive: 3.18%,–
CCn1ccc2c(OCC(=O)Nc3ccc(OC)cc3OC)cccc2c1=O,inactive: 0.011%,–
O=c1ccc(-c2ccccc2)nn1Cc1c(F)cccc1Cl,inactive: -14.4%,–
CCc1ccc(CNC(=O)CCn2nc(C)c3c(C)n(-c4ccccc4)nc3c2=O)cc1,inactive: 17.5%,–
Cc1ccc(S(=O)(=O)c2cn(Cc3ccccc3)c3cc(N4CCOCC4)c(F)cc3c2=O)cc1,inactive: -22.9%,–

SMILES,"activity change, negative = cytotoxicity",Potency
COc1cc(NC(=O)c2noc3c2CC(C)CC3)c(OC)cc1Cl (configuration not stated),inactive: 16.2%,–
Cc1nn(-c2ccccc2)c2c1N(CCCC(=O)NC(C)c1ccccc1)C(=O)CS2 (configuration not stated),inactive: 1.51%,–
Cc1nn(-c2ccccc2)c2c1N(CC(=O)N1CCN(c3ccc(Cl)cc3)CC1)C(=O)CS2,inactive: -1.26%,–
Cc1cc(C)n2nc(CNC(=O)c3ccc(Cl)cc3)nc2n1,inactive: -1.16%,–
O=C(Nc1ccccc1)c1cccc(N2CCCS2(=O)=O)c1,inactive: -4.33%,–
COc1ccc(C(CC(=O)Nc2ncccc2C)N2Cc3ccccc3C2=O)cc1OC (configuration not stated),inactive: -1.91%,–
COc1ccc(-n2c(SCCC(C)C)nc3sc4c(c3c2=O)CC(C(C)C)OC4)cc1 (configuration not stated),inactive: 10.3%,–
Cc1nn(CCCC(=O)Nc2ccccc2C(F)(F)F)c(=O)c2nn(-c3ccccc3)c(C)c12,inactive: -0.598%,–
COc1cccc(NC(=O)Cn2c(=O)n(Cc3ccc4c(c3)OCO4)c(=O)c3oc4ccccc4c32)c1,inactive: -10.4%,–
Cc1ccc(-n2ncc(C(=O)NCCN3CCN(C)CC3)c2C2CCN(C(=O)OC(C)(C)C)CC2)cc1C,inactive: -8.53%,–
COc1ccc2c(c1)c(N1CCCC1=O)c(C(=O)Nc1ccc(OC)c(Cl)c1)n2C,inactive: 4.75%,–
CCOc1ccc(CNC(=O)Cn2c(=O)c3cccn3c3cccnc32)cc1,inactive: 12.3%,–
Cc1ccc(-c2noc(CNC(=O)c3ccc(C)c(Cl)c3)n2)cc1,inactive: -16.1%,–
CCc1ccc(OCC(=O)N(Cc2ccc(C(C)C)cc2)C2CCS(=O)(=O)C2)cc1 (configuration not stated),inactive: -23.9%,–
CCN(CC)C(=O)C1=C(C)Nc2nc3ccccc3n2C1c1cccc(OC)c1 (configuration not stated),inactive: 5.17%,–
O=C(Nc1ccccc1C(F)(F)F)c1ccc(F)c(S(=O)(=O)N2CCc3ccccc3C2)c1,inactive: -20.1%,–
Cc1ccc(-n2c(C)cc(/C=C(\C#N)C(=O)Nc3ccc(C)c(C)c3)c2C)cc1,inactive: -1.23%,–
N#Cc1ccccc1CSc1nnc(-c2ccc(Br)cc2)o1,inactive: 5.6%,–
Cc1ccc(CNC(=O)Cn2ccn(-c3cccc(Cl)c3)c(=O)c2=O)cc1,inactive: 5.41%,–
O=C1CSC2(C(=O)N(Cc3cccc(C(F)(F)F)c3)c3ccccc32)N1c1ccc(F)c(F)c1 (configuration not stated),inactive: 7.73%,–
